This passage reports percent labeling results from PubChem BioAssay AID2202238 (Ras Initiative Chemistry Research Team, Frederick National …, 2025).

SMILES strings stand for the structures. Some of the results follow. These are further read-outs of the screen, such as a control signal, another cell line or another target. No call is given for them.

This test addresses GTPase KRas (Homo sapiens) (UniProt P01116). The test can be described thus: Covalent labelling of cysteine mutants by fragments, read by mass spectrometry (AID 2202238). To be noted: KRAS G12D cysteine mutants, disulfide tethering, MALDI-TOF labeling, stronger effect = higher value, fragment at 500 µM. Further details: protein at 5 µM with 500 µM competing thiol for 1.5 h.
Where [1] appears, read: measured here: G60C mutant labeling.
Setting [2] is: measured here: G75C mutant labeling.
[3] abbreviates: measured here: H94C mutant labeling.
Where [4] appears, read: measured here: I36C mutant labeling.
[5] abbreviates: measured here: L120C mutant labeling.
[6] abbreviates: measured here: M67C mutant labeling.
Setting [7] is: measured here: M72C mutant labeling.
[8] abbreviates: measured here: N26C mutant labeling.
[9] abbreviates: measured here: N86C mutant labeling.
Where [10] appears, read: measured here: P121C mutant labeling.
Setting [11] is: measured here: S122C mutant labeling.
[12] abbreviates: measured here: S136C mutant labeling.

UniProt P01116, sequence (P01116 whole entry, looked up, the tested form may be a part): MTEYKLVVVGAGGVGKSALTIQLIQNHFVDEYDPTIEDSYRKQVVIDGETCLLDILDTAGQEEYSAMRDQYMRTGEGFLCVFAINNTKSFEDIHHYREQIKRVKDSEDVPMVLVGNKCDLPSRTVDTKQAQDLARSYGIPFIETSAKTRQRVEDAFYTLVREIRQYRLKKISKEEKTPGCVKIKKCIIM

As to `O=C(NCCS)[C@@H]1OCCO[C@@H]1C(F)(F)F`, the percent labeling is, setting by setting: under setting [1], 25.3%; under setting [2], 17.6%; under setting [3], 35%; under setting [4], 19.7%; under setting [5], 42.1%; under setting [6], 28%. The compound further had a percent labeling under setting [7] of 20.2%; a percent labeling under setting [8] of 33.2%; a percent labeling under setting [9] of 42.9%; a percent labeling under setting [10] of 31.1%; a percent labeling under setting [11] of 31.8%; a percent labeling under setting [12] of 37.6%.
For `Cc1sc(=O)n(CCC(=O)NCCS)c1C`, the percent labeling reads like this: under setting [1], 29.2%; under setting [2], 11.6%; under setting [3], 25.4%; under setting [4], 28.1%; under setting [5], 29%; under setting [6], 25.4%. For the same compound, the percent labeling runs as follows: under setting [7], 18%; under setting [8], 29.2%; under setting [9], 19.9%; under setting [10], 28.5%; under setting [11], 22.8%; under setting [12], 38.7%.
Regarding `CN(Cc1ccc(-c2ccc(Br)cc2)o1)C(=O)CCS`, the percent labeling is 16.3% under setting [2]; 67.7% under setting [3]; 17.9% under setting [4]; 13.1% under setting [5]; 16.7% under setting [6]; 43.5% under setting [7]. Also, the percent labeling runs as follows: under setting [9], 16.9%; under setting [10], 19.2%; under setting [11], 6%; under setting [12], 27.9%.
`CCc1ccc(-c2csc(NC(=O)CCS)n2)s1` displayed a percent labeling under setting [2] of 17.1%; a percent labeling under setting [3] of 25.9%; a percent labeling under setting [4] of 21.1%; a percent labeling under setting [5] of 16.8%; a percent labeling under setting [6] of 14.5%; a percent labeling under setting [7] of 40.3%. In addition, the percent labeling by setting is: under setting [9], 21.9%; under setting [10], 18.5%; under setting [11], 10.5%; under setting [12], 39.4%.
Take `O=C(CN1CCC(c2ccccc2)NC1=O)NCCS` (stereo not given): the percent labeling under setting [1] amounted to 35.7%; the percent labeling under setting [2] amounted to 13.8%; the percent labeling under setting [3] was 34.4%; the percent labeling under setting [4] was determined as 25.2%; the percent labeling under setting [5] was found to be 45.5%; the percent labeling under setting [6] amounted to 38.2%. The percent labeling was determined as 36.6% under setting [7]; 40.1% under setting [8]; 23% under setting [9]; 33.2% under setting [10]; 33.7% under setting [11]; 47.1% under setting [12].
For `Cc1nc2c(C#N)c[nH]n2c(=O)c1CC(=O)NCCS`, the percent labeling runs as follows: under setting [1], 20%; under setting [2], 7.3%; under setting [3], 25.1%; under setting [4], 16%; under setting [5], 46.4%; under setting [6], 19%. In addition, the percent labeling runs as follows: under setting [7], 7%; under setting [8], 26.9%; under setting [9], 22.7%; under setting [10], 24.2%; under setting [11], 31.8%; under setting [12], 25.1%.
Consider `Cn1ccnc1N1CCC(C(=O)NCCS)C1` (stereo not given), for which the percent labeling is, setting by setting: under setting [1], 8%; under setting [2], 4.7%; under setting [3], 8.6%; under setting [4], 6.2%; under setting [5], 8.7%; under setting [6], 10.1%. For the same compound, the percent labeling is, setting by setting: under setting [7], 0%; under setting [8], 9.8%; under setting [9], 3.8%; under setting [10], 7.6%; under setting [11], 5.5%; under setting [12], 16.7%.
For `CN(C)CCN(Cc1ccco1)C(=O)CCS`, the percent labeling was 15.6% under setting [2]; 37.3% under setting [3]; 50.5% under setting [4]; 29.1% under setting [5]; 42.4% under setting [6]; 33.3% under setting [7]. Moreover, the percent labeling under setting [9] was determined as 32.8%, the percent labeling under setting [10] was 33.1%, the percent labeling under setting [11] was 32% and the percent labeling under setting [12] was 53.9%.
`O=C(CCS)NCc1nnc2n1CCC(C(F)(F)F)C2` (stereo not given): the percent labeling is, setting by setting: under setting [2], 6.4%; under setting [3], 24.4%; under setting [4], 35.2%; under setting [5], 29.6%; under setting [6], 32.1%; under setting [7], 9.2%. Also, the percent labeling is, setting by setting: under setting [9], 17.8%; under setting [10], 28.3%; under setting [11], 28.9%; under setting [12], 41.2%.
As to `O=C(CN1C(=O)COc2cc(Br)ccc21)NCCS`, the percent labeling by setting is: under setting [1], 35.9%; under setting [2], 12.1%; under setting [3], 18.9%; under setting [4], 11.9%; under setting [5], 25.9%; under setting [6], 16.6%. Further, the percent labeling under setting [7] is 29.4%; the percent labeling under setting [8] turned out to be 26%; the percent labeling under setting [9] was found to be 12.1%; the percent labeling under setting [10] is 11.7%; the percent labeling under setting [11] was 9%; the percent labeling under setting [12] came to 17.7%.
For the compound `O=C(CCS)N1CCCC(Cn2cnc3ccccc32)C1` (stereo not given), the percent labeling runs as follows: under setting [2], 20.8%; under setting [3], 44.3%; under setting [4], 46.7%; under setting [5], 35%; under setting [6], 49.4%; under setting [7], 29.8%. In addition, the percent labeling under setting [9] stood at 26.9%, the percent labeling under setting [10] is 32%, the percent labeling under setting [11] was 30% and the percent labeling under setting [12] is 61.7%.
For `Cn1nnnc1N1CCC(NC(=O)CCS)CC1`, the percent labeling worked out at 7.5% under setting [2]; 31.4% under setting [3]; 39.2% under setting [4]; 30.3% under setting [5]; 31.3% under setting [6]; 10.7% under setting [7]. For the same compound, the percent labeling came out at 19.3% under setting [9], 33% under setting [10], 29.9% under setting [11] and 51.1% under setting [12].
As to `COc1ccc(-c2nc(CC(=O)NCCS)cs2)cc1OC`, the percent labeling under setting [1] came out at 34.6%; the percent labeling under setting [2] stood at 15.6%; the percent labeling under setting [3] came to 24.2%; the percent labeling under setting [4] is 18.4%; the percent labeling under setting [5] was determined as 27.9%; the percent labeling under setting [6] is 16.9%. The same compound gave a percent labeling under setting [7] of 32%; a percent labeling under setting [8] of 30.6%; a percent labeling under setting [9] of 11.4%; a percent labeling under setting [10] of 14.9%; a percent labeling under setting [11] of 9.7%; a percent labeling under setting [12] of 19.4%.
As to `CCCc1c(NC(=O)CCS)cnn1-c1cc(F)c(OC)cc1F`, the percent labeling reads like this: under setting [2], 23.1%; under setting [3], 23.8%; under setting [4], 18.5%; under setting [5], 17%; under setting [6], 22.6%; under setting [7], 40.8%. Further, the percent labeling runs as follows: under setting [9], 20.9%; under setting [10], 18.1%; under setting [11], 17.7%; under setting [12], 44.5%.
For the compound `CNC(=O)[C@@H]1Cc2ccccc2CN1C(=O)CCS`, the percent labeling was 6.8% under setting [2]; 27.4% under setting [3]; 28.2% under setting [4]; 33.3% under setting [5]; 27.4% under setting [6]; 22.1% under setting [7]. The percent labeling runs as follows: under setting [9], 22.6%; under setting [10], 31.5%; under setting [11], 25.1%; under setting [12], 44.2%.
Turning to `O=C(CCS)NCCn1ncc(Br)n1`, the percent labeling by setting is: under setting [2], 9.3%; under setting [3], 33%; under setting [4], 34.3%; under setting [5], 36.9%; under setting [6], 36.2%; under setting [7], 17.8%. In addition, the percent labeling was found to be 13.9% under setting [9], 32.6% under setting [10], 33.7% under setting [11] and 48.1% under setting [12].
On to `O=C(NCCS)c1nn(-c2ccc(F)cc2)ccc1=O`, for which the percent labeling stood at 39.8% under setting [1]; 24.3% under setting [2]; 37.9% under setting [3]; 28.4% under setting [4]; 56.2% under setting [5]; 45.4% under setting [6]. For the same compound, the percent labeling reads like this: under setting [7], 48.4%; under setting [8], 46.6%; under setting [9], 27.6%; under setting [10], 30.7%; under setting [11], 31.9%; under setting [12], 53.4%.
The compound `O=C(CC1CCC2(CCOCC2)CO1)NCCS` (stereo not given) yielded a percent labeling under setting [1] of 24.4%; a percent labeling under setting [2] of 9.6%; a percent labeling under setting [3] of 30.3%; a percent labeling under setting [4] of 21.2%; a percent labeling under setting [5] of 38.7%; a percent labeling under setting [6] of 30.6%. The same compound returned a percent labeling under setting [7] of 15.3%; a percent labeling under setting [8] of 34%; a percent labeling under setting [9] of 22.3%; a percent labeling under setting [10] of 33.2%; a percent labeling under setting [11] of 31.4%; a percent labeling under setting [12] of 40.1%.
As to `O=C(CCS)Nc1ccc2ccc(O)cc2c1`, the percent labeling is 24.3% under setting [2]; 28.1% under setting [3]; 28.9% under setting [4]; 21.2% under setting [5]; 18.9% under setting [6]; 64.9% under setting [7]. The same compound registered a percent labeling under setting [9] of 15%, a percent labeling under setting [10] of 25.3%, a percent labeling under setting [11] of 19.5% and a percent labeling under setting [12] of 36.5%.
Consider `O=C(CCS)NC1(c2nn[nH]n2)CCCC1`, for which the percent labeling amounted to 13.2% under setting [2]; 20.3% under setting [3]; 26% under setting [4]; 28.9% under setting [5]; 18% under setting [6]; 10.7% under setting [7]. Besides, the percent labeling reads like this: under setting [9], 21.8%; under setting [10], 31.1%; under setting [11], 39.1%; under setting [12], 38.5%.
Turning to `O=C(NCCS)c1ccc(OCc2ccccc2)cc1`, the percent labeling reads like this: under setting [1], 12.4%; under setting [2], 6.3%; under setting [3], 3.3%; under setting [4], 9.9%; under setting [5], 9.1%; under setting [6], 11.5%. The percent labeling is 14.7% under setting [7]; 26.7% under setting [8]; 5.6% under setting [9]; 7.8% under setting [10]; 4.3% under setting [11]; 10.1% under setting [12].
Compound `Cn1cc(-c2cc(F)ccc2NC(=O)CCS)cn1` had a percent labeling under setting [2] of 17.4%; a percent labeling under setting [3] of 47%; a percent labeling under setting [4] of 47.4%; a percent labeling under setting [5] of 34.2%; a percent labeling under setting [6] of 41.7%; a percent labeling under setting [7] of 30.5%. The percent labeling is, setting by setting: under setting [9], 35.5%; under setting [10], 35.9%; under setting [11], 30.1%; under setting [12], 52.4%.
Regarding `Cn1nc(C(F)(F)F)nc1CNC(=O)CCS`, the percent labeling is, setting by setting: under setting [2], 8.3%; under setting [3], 23.8%; under setting [4], 24.6%; under setting [5], 31.1%; under setting [6], 27.8%; under setting [7], 10%. Also, the percent labeling amounted to 18.3% under setting [9], 28.6% under setting [10], 35% under setting [11] and 42.1% under setting [12].
In the case of `COc1cccc(CNC(=O)CCS)c1OC(F)F`, the percent labeling under setting [2] is 13%; the percent labeling under setting [3] was 35.2%; the percent labeling under setting [4] came out at 34.1%; the percent labeling under setting [5] turned out to be 30.6%; the percent labeling under setting [6] amounted to 30.7%; the percent labeling under setting [7] is 34.5%. Moreover, the percent labeling under setting [9] was 21.8%, the percent labeling under setting [10] stood at 27.5%, the percent labeling under setting [11] came out at 30.9% and the percent labeling under setting [12] turned out to be 44.5%.
